# About 1,400 (0.36%) of roughly 390,000 compounds were called active. Inconclusive means that the source gave no clear call. Such entries were picked first, then a sample of the others. The call rests on the fitted dose curve; in most records, active means well fitted inhibition curve with a large enough effect; inconclusive means small, poorly fitted or top-dose-only effect; inactive means no such curve, though single readings can be large or run the other way. A potency beside an inconclusive call is a rough fit, not a confirmed value.
# Target: Flap endonuclease 1 (Homo sapiens) (UniProt P39748)
# Chain of UniProt P39748 (P39748 whole entry, looked up): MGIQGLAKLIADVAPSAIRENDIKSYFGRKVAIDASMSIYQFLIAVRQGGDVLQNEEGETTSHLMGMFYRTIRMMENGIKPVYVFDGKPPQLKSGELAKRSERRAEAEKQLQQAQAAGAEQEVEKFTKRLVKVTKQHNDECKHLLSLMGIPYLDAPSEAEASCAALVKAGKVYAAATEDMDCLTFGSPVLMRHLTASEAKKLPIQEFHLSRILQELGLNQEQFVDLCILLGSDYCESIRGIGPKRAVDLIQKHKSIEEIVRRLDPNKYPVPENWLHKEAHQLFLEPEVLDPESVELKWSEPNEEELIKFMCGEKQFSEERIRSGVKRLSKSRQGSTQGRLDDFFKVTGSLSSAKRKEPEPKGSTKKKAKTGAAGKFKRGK
# Assay: qHTS Assay for the Inhibitors of Human Flap endonuclease 1 (FEN1). Further: nearly all actives have a fitted effect of over 65% in size.
# Settings: Recombinant FEN1 flap cleavage, fluorescence, 15 min; series mostly up to 114 µM; activity change, negative = inhibition: at the top concentration
# Summary of the method: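 Potency values derive from four-parameter Hill fits of normalized qHTS data. The reaction used 10 nM FEN1 preincubated 15 min at room temperature with compound, then 50 nM DNA substrate, read at 0 and 15 min.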
# On the % scale 0 is the no-effect control and ±100 the full control effect; potency means the concentration at half of the fitted maximal effect; tags describe the fitted curve by direction and shape.
Compound,"activity change, negative = inhibition",Potency
O=[N+]([O-])c1ccccc1/C=N\Nc1nccs1,inactive: 2.26%,
CN(C)c1ccc(/C=C/C(=O)c2ccc(O)cc2)cc1,,"inconclusive: 89.1 µM [inhibitor, partial curve, poor fit]"
C(=N\Nc1ncnc2nc[nH]c12)/c1cccs1,,"inconclusive: 56.2 µM [inhibitor, partial curve, poor fit]"
Cc1c(Cl)cccc1NC(=S)NCCc1ccc(C(F)(F)F)cc1,,"inconclusive: 39.8 µM [inhibitor, partial curve, poor fit]"
COc1cc(NC(=O)CCc2c(C)nc3c(c(C)nn3-c3ccccc3)c2C)cc(OC)c1OC,inactive: 8.73%,
COc1cc(/C=C2/C(=O)N(c3ccc(C(=O)O)cc3)N=C2C)cc(OC)c1O,,"inconclusive: 89.1 µM [inhibitor, single point]"
COc1cc(/C=C2\SC(=S)N(Nc3ncc(C(F)(F)F)cc3Cl)C2=O)ccc1O,,"inconclusive: 11.2 µM [inhibitor, full curve]"
CC(C)c1ccc(N2C(=O)/C(=C/N(C)C)SC2=S)cc1,,active: 31.6 µM
CC(C)(C)c1nnc(NS(=O)(=O)c2cc(Cl)ccc2Cl)s1,inactive: -4.25%,
Cc1cc2oc(C(=O)NCCc3ccc(S(N)(=O)=O)cc3)c(C)c2cc1C,,"inconclusive: 89.1 µM [inhibitor, single point]"
CCCNc1nc(-c2ccccc2)c(C(=O)OCC)cc1C#N,,"inconclusive: 89.1 µM [inhibitor, partial curve, poor fit]"
COc1cc(/C=C/c2ccc3ccccc3n2)cc(OC)c1OC,,"inconclusive: 44.7 µM [inhibitor, partial curve]"
CCOc1ccc2nc(N(Cc3cccnc3)C(=O)c3ccc4c(c3)OCCO4)sc2c1,inactive: -7.42%,
COc1ccc(CNC(=O)C[C@H]2C(=O)N(c3ccccc3)C[C@@H]2Cc2ccccc2)cc1,,"inconclusive: 89.1 µM [inhibitor, partial curve, poor fit]"
COn1c(SCc2cccc(Cl)c2)nc2ccccc2c1=O,,"inconclusive: 89.1 µM [inhibitor, partial curve, poor fit]"
COc1ccc(N2CCN(C(=O)Cn3cnc4sc(C)c(S(=O)(=O)N5CCC(C)CC5)c4c3=O)CC2)cc1,inactive: 6.25%,
CC1Cc2ccccc2N1C(=O)COC(=O)c1ccc([N+](=O)[O-])o1 (configuration not stated),,active: 28.2 µM
CCOc1ccc(-c2nc(C#N)c(NCc3ccc4c(c3)OCO4)o2)cc1,,"inconclusive: 79.4 µM [inhibitor, partial curve, poor fit]"
O=[N+]([O-])c1cc(S(=O)(=O)Nc2cccc(Cl)c2)ccc1N=Nc1c(O)[nH]c2ccccc12,,"inconclusive: 89.1 µM [inhibitor, partial curve, poor fit]"
CC(C)CCNC(=O)c1onc(CSc2ccccn2)c1C(=O)NCCC(C)C,,"inconclusive: 56.2 µM [inhibitor, partial curve, poor fit]"
Cc1ccc2c(=O)cc(C(=O)Nc3nc4ccc(Cl)cc4s3)oc2c1C,,"inconclusive: 56.2 µM [inhibitor, partial curve, poor fit]"

Compound,"activity change, negative = inhibition",Potency
Cc1cc(C(=O)COC(=O)c2cc(O)c3ccccc3c2O)c(C)n1CC1CCCO1 (configuration not stated),,"inconclusive: 39.8 µM [inhibitor, partial curve, poor fit]"
COc1ccc(CC(=O)Oc2ccc(C)cc2Br)cc1OC,,"inconclusive: 56.2 µM [inhibitor, partial curve, poor fit]"
COc1ccc(/C=C/C(=O)Nc2ccc3nc4c(c(Nc5ccccc5OC)c3c2)CCCC4)cc1,inactive: 9.88%,
Cc1ccc(NC(=O)CCc2c(C)nn(-c3ccc(N4CCOCC4)nn3)c2C)cc1C,inactive: -2.73%,
COC(=O)c1ccc(CN2C(=O)c3ccccc3C2=O)cc1,inactive: 3.98%,
COc1cc(/C=N/NC(N)=O)ccc1OC(=O)c1cccs1,inactive: -2.69%,
COc1cccc(CNC(=O)CCc2c(C)nc3c(c(C)nn3-c3ccc(C)c(C)c3)c2C)c1,inactive: -2.77%,
CCC(C)NC(=O)c1ccc2nc(-c3ccco3)c(-c3ccco3)nc2c1 (configuration not stated),,"inconclusive: 14.1 µM [inhibitor, full curve, poor fit]"
COc1ccc(NC(=O)Cn2c(=O)n(CCC(=O)NCc3ccccc3OC)c(=O)c3ccccc32)cc1Cl,inactive: 8.85%,
CCN(Cc1cccc(S(=O)(=O)O)c1)c1ccc(C(=C2C=CC(=[N+](CC)Cc3cccc(S(=O)(=O)O)c3)C=C2)c2ccc(O)cc2S(=O)(=O)O)cc1,,active: 12.6 µM
COc1ccc(OC)c(/C=C/c2ccnc3ccccc23)c1,,"inconclusive: 39.8 µM [inhibitor, partial curve, poor fit]"
Nc1cc2nc3ccccc3oc-2cc1=O,,"inconclusive: 17.8 µM [inhibitor, partial curve, poor fit]"
COc1ccc(N(C(=O)c2ccc(OC)c(OC)c2)S(=O)(=O)c2ccc(Cl)cc2)cc1,,active: 89.1 µM
COc1cccc(NC(=O)CSc2nnc3scc(-c4ccc(Cl)cc4)n23)c1,inactive: -3.28%,
O=C(N/N=C/c1cccc2ccccc12)c1ccccc1Cl,,"inconclusive: 50.1 µM [inhibitor, partial curve, poor fit]"
CC(C)CC(=O)C1=C(O)C(=O)N(Cc2ccccc2)C1c1ccccc1 (configuration not stated),,"inconclusive: 39.8 µM [inhibitor, single point]"
C=CCn1c(SCC(=O)Nc2sc3c(c2C#N)CCC(C)C3)nc2cc(C(=O)O)ccc2c1=O (configuration not stated),,"inconclusive: 31.6 µM [inhibitor, partial curve, poor fit]"
OC(COc1ccccc1)CN1CCN(C(c2ccccc2)c2ccccc2)CC1 (configuration not stated),,"inconclusive: 44.7 µM [inhibitor, partial curve, poor fit]"
O=C(NCCc1ccccc1)c1sc2ncccc2c1-n1cccc1,,"inconclusive: 35.5 µM [inhibitor, partial curve, poor fit]"
CCN(CC)CCn1c2ccccc2c(=O)c2c(O)ccc(O)c21,,"inconclusive: 44.7 µM [inhibitor, partial curve]"
N=C1/C(=C\c2ccc(-c3cccc(Cl)c3)o2)C(=O)N=C2SC=C(c3ccccc3)N12,inactive: -1.67%,

# Reference: PubChem BioAssay AID588795 (National Center for Advancing Translational Sciences (NCATS), 2011)
